Data from PubChem BioAssay AID1645887 (National Center for Advancing Translational Sciences (NCATS), 2021).
Several values for one entry are separate records, joined by “and”; a condition that tells them apart may be missing. Identical values can stand only once. Screen size: about 16,000 compounds; about 40 (0.2%) were called active. Not shown: some 1% with an inconclusive outcome. Calls follow the shape of the dose curve; as a rule, active = well fitted activation curve with a large enough effect; inconclusive = small, poorly fitted or top-dose-only effect, or another doubt; inactive = no such curve, though single readings can be large or run the other way. The list shows a part of the results.

Molecular target: Rap guanine nucleotide exchange factor 4 (Homo sapiens) (UniProt Q8WZA2)
UniProt Q8WZA2, sequence (Q8WZA2 whole entry, looked up): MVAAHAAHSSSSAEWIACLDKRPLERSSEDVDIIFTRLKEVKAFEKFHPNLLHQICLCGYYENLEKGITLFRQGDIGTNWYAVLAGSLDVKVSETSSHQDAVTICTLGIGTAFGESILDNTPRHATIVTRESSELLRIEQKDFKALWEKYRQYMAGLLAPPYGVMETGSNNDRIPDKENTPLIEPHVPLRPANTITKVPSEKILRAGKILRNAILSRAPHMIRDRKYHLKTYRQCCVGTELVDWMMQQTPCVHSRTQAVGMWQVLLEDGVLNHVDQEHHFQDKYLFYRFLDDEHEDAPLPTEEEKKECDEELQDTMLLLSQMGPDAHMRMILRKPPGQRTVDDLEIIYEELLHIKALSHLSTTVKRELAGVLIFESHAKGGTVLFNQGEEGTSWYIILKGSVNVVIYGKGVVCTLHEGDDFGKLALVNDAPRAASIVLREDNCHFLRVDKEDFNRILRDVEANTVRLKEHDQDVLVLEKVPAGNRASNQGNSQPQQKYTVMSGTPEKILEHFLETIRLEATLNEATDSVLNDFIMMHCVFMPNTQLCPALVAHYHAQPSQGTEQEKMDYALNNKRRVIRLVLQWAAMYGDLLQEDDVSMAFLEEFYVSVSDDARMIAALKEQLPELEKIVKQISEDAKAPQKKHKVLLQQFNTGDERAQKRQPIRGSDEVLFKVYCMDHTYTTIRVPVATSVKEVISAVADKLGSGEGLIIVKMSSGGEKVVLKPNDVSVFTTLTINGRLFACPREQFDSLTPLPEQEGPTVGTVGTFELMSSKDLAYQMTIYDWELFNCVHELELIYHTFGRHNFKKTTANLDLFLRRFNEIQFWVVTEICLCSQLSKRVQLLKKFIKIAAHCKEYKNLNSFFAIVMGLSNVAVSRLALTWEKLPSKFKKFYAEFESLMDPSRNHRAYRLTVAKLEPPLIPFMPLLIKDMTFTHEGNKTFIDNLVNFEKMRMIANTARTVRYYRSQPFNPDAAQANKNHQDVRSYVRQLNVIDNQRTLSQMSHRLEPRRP
Assay: Validation qHTS for agonist of cAMP-regulated guanine nucleotide exchange factor 4 (EPAC2);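 also: exchange makes BODIPY-GDP fluorescence drop when released from Rap1B; series mostly up to about 150 µM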
Details: EPAC2 Rap1B BODIPY-GDP exchange, fluorescence; activation: active compounds read high
In short: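 Signal normalized against 6.5 mM cAMP as agonist control. Mix of EPAC2 (100 nM), RAP1B-BODIPY-GDP (250 nM) and GDP (50 uM) was read kinetically at 480/540 nm, every 5 min over 30 min, after 5 min room-temperature incubation with compound.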
% is scaled to controls: 0 for no effect and ±100 for the full control effect.

activation, inactive:
Oc1c(Cl)cc(Cl)cc1Sc1cc(Cl)cc(Cl)c1O -20.9% and -9.87%, CCCCOc1ccc(CC(=O)NO)cc1 -5.18% and 0.888%, CC(=O)OC(C)C[N+](C)(C)C (configuration not stated) 2.61% and -4.44% and -5.84%, CN(C)c1ccc(/C=C2\C(=O)Nc3ccccc32)cc1 4.11% and -30.5%, O=c1cc(-c2cccc(O)c2)oc2c(O)c(O)ccc12 -9.2%, CS(=O)(=O)Nc1cccc(-c2nc(-n3ccnc3)c3ccccc3n2)c1 -22.9%, O=S1(=O)[C@H]2C[C@@H]3C=C[C@@]2(CN1Cc1cccc(C(F)(F)F)c1)O3 -23%, CO[C@@H]1[C@@H](OC)[C@H](C)[C@@](O)(CC(=O)O)O[C@H]1[C@H](C)[C@H]1O[C@@]2(CC[C@@](C)([C@H]3CC[C@@](C)([C@@H]4O[C@@H]([C@H]5O[C@](C)(O)[C@H](C)C[C@@H]5C)C[C@@H]4OC4C[C@H](OC)[C@@H](OC)[C@H](C)O4)O3)O2)C[C@H](O)[C@H]1C (some centres not stated) -20.2%, COc1ccccc1N1CCN(CC2CN3C(=O)N(C)c4ccccc4C3=N2)CC1 (configuration not stated) -2.65%, CN(CC1COCCO1)C(=O)c1cnn(-c2ncc3c(n2)-c2ccccc2CCC3)c1C1CC1 (configuration not stated) -9.57%, CNc1ccc(/C=C2\C=Cc3ccccc32)cc1 -17.7%, CCCCCCCCCCCCCCCCO -11%, CO/N=C(\C(=O)N[C@@H]1C(=O)N2C(C(=O)O)=C(CSc3nc(C)c(CC(=O)O)s3)CS[C@H]12)c1csc(N)n1 -12.7%, CC(=O)Nc1cc(C(=O)N2CCc3c(Cl)cccc3C2)cc2ncn(CCc3ccccn3)c12 -4.5%, CCN1/C(=C/C(C)=O)Sc2ccc(OC)cc21 -15.5%, Cc1noc(C)c1-c1ccc2ncnc(Nc3ccccc3)c2c1 -18.7%, C[C@H]1c2cccc(O)c2C(O)=C2C(=O)[C@]3(O)C(O)=C(C(N)=O)C(=O)[C@@H](N(C)C)[C@@H]3[C@@H](O)[C@@H]21 -3.57% and -33.6%, CC(=O)Oc1ccc(/C=C/C(=O)CC2OC(Oc3cc(OC(C)=O)c4c(c3)O[C@@H](c3ccc(OC(C)=O)cc3)CC4=O)C(OC(C)=O)C(OC(C)=O)C2OC(C)=O)cc1 (some centres not stated) -7.37%, CNC(=O)[C@@H]1C[C@H](Sc2nc3ccccc3[nH]2)CN1Cc1ccccc1C(F)(F)F -3.55%, Cc1c(CC(C)(C)C(=O)O)n(Cc2ccc(Cl)cc2)c2ccc(F)cc12 -20.9%, COC(=O)C1CCCCN1Cc1ccc2c(c1)CN(Cc1cnn(-c3ccccc3)c1)CCO2 (configuration not stated) -1.9%, Cc1cnc(CNc2nc(-c3ccoc3)nc3ccccc23)cn1 2.28%, N=S(=O)(O)Cc1noc2ccccc12 -26.5%, COc1ccnc(CS(=O)c2nc3cc(OC(F)F)ccc3[nH]2)c1OC (configuration not stated) -15.3%, COc1ccc(/C=C\C(=O)Nc2ccccc2C(=O)O)cc1OC -7.79%, CC(=O)c1ccc2c(c1)N(CCCN1CCN(CCO)CC1)c1ccccc1S2 8.14%, COc1cc2oc(-c3ccccc3)cc(=O)c2cc1O -4.83%, O=C(Oc1ccccc1)N1CCC2(CC1)CCN(c1ncccn1)CC2 -27.1%, Cc1c(C(=O)NCC2CC2)sc2ncnc(NCCN3CCCCC3)c12 -16.7%, Clc1ccc2ncnc(NCc3ccc4c(c3)OCO4)c2c1 3.21%, COc1cccc(C2(CC(=O)N3CCN(c4ccccc4O)CC3)CC(=O)N(C3CCCC3)C2=O)c1 (configuration not stated) -7.37%, CS(=O)(=O)Nc1cccc(-c2nccc(Nc3ccc(F)cc3)n2)c1 -13.4%, Cc1cc(C)c2c(n1)NCCC2 -14.5%, CCCCC1CN(CCNC(=O)c2ccccn2)Cc2ccccc2O1 (configuration not stated) -0.47%, Cc1cccc(CNc2nc(-c3cccnc3)nc3ccccc23)c1 -9.76%, CCCN1CCC(=O)N([C@H](CSc2ccccc2)Cc2ccccc2)CC1 -27%, O=c1c(O)c(-c2ccccc2)oc2cc(O)cc(O)c12 -34.8%, O=C(O)c1cc(=O)c2c(OCC(O)COc3cccc4oc(C(=O)O)cc(=O)c34)cccc2o1 -0.18% and -0.933%, c1ccc(CNc2ncnc3ccc(-c4ccc5c(c4)OCO5)cc23)cc1 6.46%, CNCCC(Oc1ccccc1C)c1ccccc1 (configuration not stated) 11.5%, COCCNc1ccnc(-c2ccccc2CN(C)C)n1 -15.4%, COc1cc2c(cc1OC)C1N(CC2)C(=O)CCC12C(=O)CCCC2=O (configuration not stated) -19.2%, COc1cccc(Cn2c(=O)c(-c3cccc(F)c3)nc3cncnc32)c1 3.46%, CC(C)C[C@@H](CN=[N+]=[N-])N1CCN(C)CCC1=O -10.8%, COc1cccc(Cn2c(=O)cnc3cnc(N4CCOCC4)nc32)c1 1.34%, O=C(c1cccc(F)c1)N1CCC2(CC1)CCN(c1ccccn1)CC2 -10.1%, COCCn1c(=O)c(-c2ccc(Cl)cc2)nc2cnc(Oc3ccc(OC)cc3)nc21 -10.7%, COc1ncc2nc(C)c(=O)n(Cc3ccc(F)cc3)c2n1 -3.86%, Cc1cnc(CNc2ncnc3ccc(-c4cccc(C#N)c4)cc23)cn1 -8.78%, OCC1OC(n2cnc3c(Cl)nc(Cl)nc32)C(O)C1O (configuration not stated) -15.7%, CNc1ncncc1-c1ccccc1CN(C)C -15.3%, CS(=O)(=O)N1CCC2(CC1)CN(c1ccccn1)C2 -15.3%, Oc1cc(-c2nc3ccccc3s2)cc2c1OCCN(Cc1cn[nH]c1-c1ccc(Cl)cc1)C2 -7.25%, N#Cc1ccccc1-c1ccc2ncnc(NCc3cccs3)c2c1 -20.5%, O[C@@H]1CO[C@H]2[C@@H]1OC[C@@H]2O -6.56%, Cc1cc(-n2nc3ccc(Cl)cc3n2)c(O)c(C(C)(C)C)c1 6.12%, O=C([C@@H]1C[C@@H](Sc2nc3ccccc3[nH]2)CN1Cc1ccc(Cl)cc1)N1CCN(c2ccccc2F)CC1 -11%, COc1ccc(C(=O)N2CCC3(CCCN(Cc4nccs4)C3)CC2)cc1 -5.49%, COc1c(O)cc2c(c1O)C1OC(CO)C(O)[C@H](O)[C@H]1OC2=O (some centres not stated) 6.42%, COc1cc(=O)n2c(c1C(=O)NCc1ccco1)CCN(Cc1c(F)cccc1F)CC2 -10.6%, CCn1c(-c2ccccc2F)nc2cc(NC(C)=O)cc(C(=O)NCc3ncc(C)[nH]3)c21 -9.68%, C[N+]1(C)CC(O)[C@H](C(=O)[O-])C1 (some centres not stated) -7.26%, Clc1ccc2nc[nH]c2c1 -17.1%, COc1cc(-c2noc(C)c2C#CCO)cc(OC)c1OC -23.8%, CCSc1ccc2c(c1)N(CCCN1CCN(C)CC1)c1ccccc1S2 -4.82%, O=C(c1csnn1)N1CCC2(CCCN(c3ccccc3)C2)CC1 4.94%, Cc1c(O)cccc1C(=O)N[C@@H](CSc1ccccc1)[C@H](O)CN1C[C@H]2CCCC[C@H]2C[C@H]1C(=O)NC(C)(C)C -19.2%, COc1ccc(NC(=O)N2CC[C@@]3(CCCN(C(=O)c4ccncc4)C3)C2)cc1 -21.2%, CC(=O)ON(C(C)=O)c1ccc(/C=C2/C=Cc3ccccc32)cc1 2.34%, CNc1nc(-c2ccccc2Cl)nc2ccccc12 -2.34%, CN(C)C(=O)c1ccc(-c2cc(-n3ccnc3)ncn2)cc1 -11.2%, C[C@H]1C[C@]2(O[C@@H]2C)C(=O)O[C@@H]2CCN(C)C/C=C(/COC(=O)[C@]1(C)O)C2=O -5.13%, CN(C)CCC(c1ccccc1)c1ccccn1 (configuration not stated) -16.4% and -1.48% and -14.2%, COc1cccc(-c2ccc3ncnc(N(C)C)c3c2)c1 -1.09%, C=CC(C1=CC(=O)C(OC)=CC1=O)c1ccc(O)cc1 (configuration not stated) 9.29%, CC1=CCC(C(C)(C)O)CC1 (configuration not stated) -15.6%, CCCCCC1C(=O)CCC1CC(=O)O (configuration not stated) -4.42%, CC(C)CCC[C@@H](C)[C@H]1CC[C@H]2[C@@H]3CC=C4C[C@@H](O)CC[C@]4(C)[C@H]3CC[C@]12C -8.56%, CC(C)C[C@H](NC(=O)[C@H](Cc1ccccc1)NC(=O)CNC(=O)CNC(=O)[C@@H](N)Cc1ccc(O)cc1)C(=O)N[C@@H](CCCN=C(N)N)C(=O)N[C@@H](CCCN=C(N)N)C(=O)N[C@@H](CCC(N)=O)C(=O)N[C@@H](Cc1ccccc1)C(=O)N[C@@H](CCCCN)C(=O)N[C@H](C(=O)N[C@H](C(=O)N[C@H](C(=O)O)[C@@H](C)O)C(C)C)C(C)C 4.04%, COc1ccc(-c2nc3cnc(N4CCOCC4)nc3n(-c3ccc(OC)cc3)c2=O)cc1 -15%, O=C(/C=C/c1ccccc1)OCc1ccccc1 -6.76%, Nc1ccn([C@@H]2O[C@H](CO)[C@@H](O)[C@H]2O)c(=O)n1 12.9%
